Whole data set: some 110,000 compounds, median “z-score” near -0.1, cut for the highest 2% near 2. The list shows a part of the results. The source made the active and inactive calls.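 Rule for the calls: active = z-score in the third read window above 3 or below -3; inactive = the rest.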 Residues, ends and D or L forms follow the SMILES beside them. *: point of attachment. Cbz = O=C(OCc1ccccc1)*
target: Metabotropic glutamate receptor 8 (Rattus norvegicus) (UniProt P70579); test: mGluR8 Gi/Go-coupled signaling modulation – cell-based, rat, thallium flux, HTS, primary screen (AID 488969); conditions: HEK293 rat mGluR8, GIRK (G protein-gated inwardly rectifying potassium channel) thallium flux, FluoZin2; at 10 µM; stronger effect = higher value; submaximal glutamate (EC20) added with thallium
UniProt P70579, sequence (P70579 whole entry, looked up): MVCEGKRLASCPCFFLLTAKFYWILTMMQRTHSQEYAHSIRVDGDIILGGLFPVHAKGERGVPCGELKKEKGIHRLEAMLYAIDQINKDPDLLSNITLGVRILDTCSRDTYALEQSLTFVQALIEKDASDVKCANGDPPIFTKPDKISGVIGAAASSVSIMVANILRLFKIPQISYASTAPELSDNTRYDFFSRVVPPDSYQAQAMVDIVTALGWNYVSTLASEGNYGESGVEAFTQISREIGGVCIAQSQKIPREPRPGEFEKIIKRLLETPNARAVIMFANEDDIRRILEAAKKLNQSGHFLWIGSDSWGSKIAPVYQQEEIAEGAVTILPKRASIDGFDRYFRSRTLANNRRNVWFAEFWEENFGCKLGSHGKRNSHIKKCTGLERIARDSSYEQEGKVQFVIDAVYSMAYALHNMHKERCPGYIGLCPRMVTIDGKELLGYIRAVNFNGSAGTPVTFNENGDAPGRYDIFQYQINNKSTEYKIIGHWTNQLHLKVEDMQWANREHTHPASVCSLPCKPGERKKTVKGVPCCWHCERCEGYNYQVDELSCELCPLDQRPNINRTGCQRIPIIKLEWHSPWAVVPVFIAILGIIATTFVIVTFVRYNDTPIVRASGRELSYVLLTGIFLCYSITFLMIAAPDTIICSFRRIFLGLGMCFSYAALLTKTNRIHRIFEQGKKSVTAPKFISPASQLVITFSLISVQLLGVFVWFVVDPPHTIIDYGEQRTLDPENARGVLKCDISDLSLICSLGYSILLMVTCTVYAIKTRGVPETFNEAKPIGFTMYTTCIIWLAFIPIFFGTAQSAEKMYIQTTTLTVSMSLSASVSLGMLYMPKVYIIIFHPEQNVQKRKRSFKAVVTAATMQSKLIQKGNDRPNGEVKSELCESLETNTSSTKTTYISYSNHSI

Compound | z-score
CC(=O)c1ccc(N2CCN(CCC#N)CC2)c(F)c1 | -0.104
CCn1ncc(C2=NOC(C(=O)Nc3c(C)nn(Cc4ccc(F)cc4)c3C)C2)c1C (stereo not given) | -0.475
COc1ccc(OC)c(C2/C(=C(/O)c3ccc(C)cc3)C(=O)C(=O)N2Cc2ccco2)c1 (stereo not given) | -0.543
CCOC(=O)N1CCN(c2c(NCCCN3CCCC(C)C3)c(=O)c2=O)CC1 (stereo not given) | -0.0555
Cc1ccc2cc(C=C(C#N)C#N)c(N3CCCCC3)nc2c1 | -0.315
Fc1ccc(-c2nnc(-c3ccc(Cl)cc3Cl)o2)cc1 | 1.19
Cc1cccn2c(=O)c3cc(C#N)c(=N)n(CCCN4CCOCC4)c3nc12 | 0.139
COCCNC(=O)CN(c1ccccc1OC)S(C)(=O)=O | -0.687
CCS(=O)(=O)N1CCC(C(=O)NC2CCCCC2)CC1 | 0.0354
O=S(=O)(NCCSc1ccccc1)c1ccc2c(c1)OCCO2 | -0.0362
CC(C)(C)SCCNC(=O)CN1C(=O)c2ccccc2S1(=O)=O | 0.561
S=C(NCCc1ccc(Cl)cc1)Nc1ccc(Cl)cc1Cl | 1.69
O=CNCC(=O)NCCc1ccc(Cl)cc1 | -0.44
Cc1ccc(-c2ccc(CCC(=O)O)n2NC(=O)c2ccco2)cc1 | 0.745
CCOC(=O)Cc1csc(NC(=O)c2ccc(OC)c(OC)c2)n1 | 0.0105
O=C1CCCC(=O)N1c1ccc(N2CCN(c3ccc([N+](=O)[O-])cc3)CC2)c([N+](=O)[O-])c1 | -0.189
CCCN1C(=O)S/C(=C\c2ccc(N3CCOCC3)cc2C)C1=O | 0.0877
CCCOC(=O)CSc1nc(N)c(C#N)c(-c2ccco2)c1C#N | -0.213
O=C(COc1ccccc1)N(Cc1ccco1)C1CCS(=O)(=O)C1 (stereo not given) | 0.0735
CCOC(=O)N1CCN(C(=O)Cn2ncn3nc(-c4cccs4)cc3c2=O)CC1 | 0.33
Cc1nc(-c2ccccc2)cc(N2CCCC2)n1 | -0.306
O=C(CN(C(=O)CCC(=O)Nc1nccs1)c1cccc(F)c1)NCC1CCCO1 (stereo not given) | 0.359

Compound | z-score
CCc1nc2sc(C#N)c(N)c2c2c1CCCC2 | -0.0957
Cc1ccc(C(=O)O)cc1-c1ccc(/C=C2/NC(=O)N(c3ccccc3)C2=O)o1 | 0.164
COc1ccc(-c2cc3nc(C)cc(C)n3n2)cc1 | 0.202
COc1ccc(C(=O)NCCc2nnc(SCC(=O)Nc3ccccc3C(C)C)n2C)cc1 | -0.39
COc1cc(OC)cc(-c2nnc(SCc3cccc(C(=O)O)c3)o2)c1 | -1.4
Cc1ccc(SCc2nc3ccccc3[nH]2)cc1 | -0.0609
CCOC(=O)c1sc(=S)n(-c2ccc(C)cc2)c1SC | -0.0488
CCOC(=O)c1c(C)n(-c2ccc(OC)cc2)c2c(C/C(C)=N/O)c(Br)c(OC)c(O)c12 | 0.0312
Cc1ccc(C)n1-c1sc2c(c1C#N)CCC(C)C2 (stereo not given) | -0.0968
O=C(COc1ccc(Cl)cc1Cl)NNC(=S)Nc1ccc(F)cc1 | active: 7.82
O=C(Cn1nnc(-c2ccncc2)n1)Nc1ccc2c(c1)CCC2 | -0.151
COc1ccc(CNCCc2ccccc2)cc1OCC(N)=O | -0.129
COc1ccc(OCc2cccc(C(=O)NN)c2)cc1 | -0.336
COc1cc(NS(=O)(=O)c2ccc(NC(=S)NC(=O)C3CCCC3)cc2)nc(OC)n1 | -0.559
Cc1ccsc1C(=O)OCc1nc2ccccc2c(=O)[nH]1 | 0.0258
CCN(CC)CCN1C(=O)C(O)=C(C(=O)c2cccs2)C1c1ccccn1 (stereo not given) | 0.445
CCOc1c(Cl)cc(Cl)cc1CNCCNCCO | 0.738
COC(=O)c1ccc(-n2nnnc2SCC(=O)N2CCCCC2)cc1 | -0.0991
CC(=O)CCc1oc2ccc(NC(C)=O)cc2c1-c1ccc(C)o1 | -0.484
O=c1c2c3n(c(=O)nc2[nH]n1-c1ccccc1)CCCCC3 | -1.04
O=C(Nc1ccc(N2CCN(C(=O)c3ccccc3)CC2)c(Cl)c1)c1cccnc1 | -0.512
COC(=O)Nc1ccc(C)cc1NC(=O)OC | 0.827

Compound | z-score
CCOC(=O)CN1CC23C=CC(O2)C(C(=O)Nc2ccc(F)cc2)C3C1=O (stereo not given) | -0.522
COC(=O)C1=C(O)/C(=C\c2ccc(CNS(=O)(=O)c3ccccc3)o2)N=C1C | -0.112
Cc1ccc(S(=O)(=O)N2CCN(C(=O)c3cc4c(C)nn(-c5ccccc5C)c4s3)CC2)cc1 | -0.106
O=C(Nc1ccccc1)c1nnsc1S(=O)(=O)c1ccc(Cl)cc1 | -0.196
Nc1ncnc2c1ncn2CCN1CCOCC1 | 0.113
Cc1cc(NC(=O)c2cc3ccccc3oc2=O)no1 | 0.0723
Clc1ccc(Cn2cc(Br)cn2)cc1Cl | 0.302
C/C(=N\O)C(C)/[N+]([O-])=C/c1nc(C)c(C)n1O (stereo not given) | 1.53
Cc1cccc(N(CC(=O)NC2CCCCC2)C(=O)CCCC(=O)Nc2ccccn2)c1 | -0.0152
O=C(c1ccccc1)N1CCN(c2ccc(NCc3ccc4c(c3)OCO4)cc2)CC1 | -1.18
Cc1ccccc1-c1nc(CN2CCC(C(=O)NCCC3=CCCCC3)CC2)c(C)o1 | 1.63
CC(C)c1c(O)nc(SCC(=O)N2CCOCC2)[nH]c1=O | -0.357
O=C(NCC(=O)N(c1ccc(F)cc1)C(C(=O)NCC1CCCO1)c1ccccc1)c1ccco1 (stereo not given) | -0.245
Cc1cccc(NC(=S)NCc2ccccn2)c1 | 0.216
COc1cccc(C(=O)Oc2cccc(N3C(=O)C4C5CC(C(Br)C5Br)C4C3=O)c2)c1 (stereo not given) | -0.026
CCC1(C)Cc2c(sc3nnn(CC(=O)Nc4ccccc4C)c(=O)c23)CO1 (stereo not given) | -0.515
CC(=O)Nc1ccc(S(=O)(=O)NC(C(=O)O)C(C)C)cc1 (stereo not given) | 0.136
CCOCC(=O)Nc1nnc(Cc2ccc(OC)c(OC)c2)s1 | 0.0042
Cc1cc(=O)[nH]c(SCCOc2ccc3c(c2)CCC3)n1 | 0.129
COc1ccccc1N(C)S(=O)(=O)c1ccc(C(=O)OCC(=O)c2c[nH]c3ccccc23)cc1 | -0.0916
CC1=C(C(=O)Nc2ccc(Cl)cc2)C(c2ccco2)NC(=O)N1 (stereo not given) | 0.0306
COC(=O)c1cc2sccc2n1CC(=O)Nc1ccc(OC)c(OC)c1OC | -0.315

Compound | z-score
Cc1nc(=O)c(-c2ccccc2)c(C)n1-c1ccc(O)cc1 | -1.56
O=C(CSc1nnnn1C1CCCCC1)N1c2ccccc2Sc2ccccc21 | -1.48
CC1CC(CC(C)C(=O)Nc2nncs2)C(=O)O1 (stereo not given) | -0.122
Cc1nc(SCC(=O)NCc2ccccc2)c2oc3ccccc3c2n1 | -0.889
CS(=O)(=O)Nc1ccccc1C(=O)N1CCOCC1 | 1.59
O=[N+]([O-])c1ccc(N2CCNCC2)cc1Sc1nc2ccccc2[nH]1 | -0.0109
COC(=O)C1CCCN1C(=O)C1CCCN1C(=O)CNC(=O)OCc1ccccc1 (stereo not drawn) (Cbz-Gly-Pro-Pro-OMe; configuration not given here) | -0.518
CC(Oc1ccccc1)C(=O)NC1CCN(Cc2ccccc2)CC1 (stereo not given) | -2.68
COc1cc(Cl)c(S(=O)(=O)NCCN2CCOCC2)cc1Cl | 0.7
O=C(Nc1ccc(F)cc1)Nc1ccc(N2CCCC2)c(S(=O)(=O)Nc2ccccc2Cl)c1 | -0.191
COc1ccccc1Nc1nnc(SCC(=O)Nc2cc(C)on2)s1 | -0.352
Cc1noc(C)c1CSc1ccccc1C(=O)Nc1nccs1 | 0.618
CCn1c(CCNC(=O)c2ccccc2Cl)n[nH]c1=S | -0.0402
CCSc1ccccc1C(=O)N1CCCC1 | -0.309
COC(=O)C1(Cc2ccccc2)NC(c2ccccc2C)C2C(=O)N(c3ccc4c(c3)OCO4)C(=O)C21 (stereo not given) | 0.42
CCCCc1n[nH]c2c1/C(=N/O)CC(c1ccccc1)C2 (stereo not given) | 0.131
C=CCN(C)CCCNC(=O)/C=N/O | -0.0821
COC(=O)Cc1c(C)c2cc(Cl)c(OC(=O)c3ccco3)cc2oc1=O | 0.852
CCn1c(C)c2c(C)nnc(C)c2c1C | 0.319
COCCNC(=O)Cn1cnc2sc(C)c(S(=O)(=O)N3CCC(C)CC3)c2c1=O | 0.33
O=C(/C=C/c1ccccc1)Nc1nnc(SCC(=O)c2ccc3ccccc3c2)s1 | -0.0885
Nc1nc(SCCN2C(=O)c3ccccc3C2=O)n[nH]1 | -0.241

Compound | z-score
N#C/C(=C\c1cn(CCOc2ccccc2)c2ccccc12)C(=O)NCc1cccs1 | -0.283
O=C(Nc1ccc(S(=O)(=O)N2CCOCC2)cc1)c1ccc(Cl)s1 | -0.204
O=C1N=C(N2CCc3ccccc3C2)S/C1=C\c1cccc(O)c1 | -0.567
Cc1nc(C)c(C(=O)Nc2ccccc2)s1 | 0.738
Cc1cccc(C(O)(C(=O)NNc2ccc3ccccc3n2)c2cccc(C)c2)c1 | 0.0221
CCCC(=O)N1c2ccccc2C(N(C(C)=O)c2ccccc2)CC1C (stereo not given) | -0.945
N#Cc1c(N2CCCCC2)nc(N)c2c(N)nc3c(c12)CC(c1ccccc1)O3 (stereo not given) | -0.197
CCOC(=O)C1CCN(S(=O)(=O)c2ccc(C(C)=O)cc2)CC1 | -0.000373
Cn1ncc(N=Cc2ccc([N+](=O)[O-])cc2)c1C(=O)N1CCOCC1 | 0.282
CCCCOc1ccc(NC2=NC3(CCCC3)N=C(N)N2)cc1 | 0.944
CCCn1c(NCc2ccc(N(C)C)cc2)nc2ccccc21 | 0.4
N#Cc1c(NC(NC(=O)c2ccco2)C(=O)c2ccccc2)sc2c1CCCC2 (stereo not given) | -0.148
CC1(C)CC(=O)C2=C(C1)N(N1CCOCC1)C(N)=C(C#N)C2c1cccs1 (stereo not given) | 0.368
COc1ccc(-c2csc(N3CCN(C(=O)c4ccccc4)CC3)n2)cc1 | 0.126
CC(C)N(C)NC(=S)Nc1ccccc1 | -0.0718
CS(=O)(=O)C1=NSC2=NC(=O)/C(=C\c3cccn3-c3ccc(Cl)cc3)C(=N)N21 | -0.377
O=C(Cn1c(=O)sc2ccccc21)OC(CCl)CCl | -0.0215
CCCC(=O)Nc1ccc(C(=O)Nc2nc(CC(=O)OCC)cs2)cc1 | -0.437
CC1(C(=O)N/N=C/c2ccc([N+](=O)[O-])o2)CC1(Br)Br (stereo not given) | -0.0735
CCOC(=O)N1CCN(S(=O)(=O)c2ccc(OC)c(Cl)c2Cl)CC1 | -0.379
COc1ccc(S(=O)(=O)n2oc(=O)cc2-c2ccccc2)cc1 | -0.367
Cc1cccc(N2CCN(c3nc4ccccc4n4cnnc34)CC2)c1C | -0.0675

— PubChem BioAssay AID488969 (Vanderbilt High Throughput Screening Facility, 2010)
